# Results as given in the supplement of paper PMC11417369.
# This is one part of the list.
# Tested on: PF3D7_0420300 AP2 domain 1 (GST-tagged)
# Assay: gcPBM binding intensity (ln(normalized median fluorescence intensity)); higher = stronger DNA binding
# In short: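 For binding intensity, the highest Masliner-normalised natural-log median intensity across replicate spots of either probe orientation was taken. Protein bound to the array was stained with Alexa488 anti-GST antibody and scanned at 488 nm. The protein, GST-tagged P. falciparum DNA-binding domains from E. coli at about 25 μg on average, had been applied for 1 h to an Agilent 4 × 180k array of primer-extended double-stranded 36-bp intergenic genomic probes and negative controls.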
row,Sequence,gcPBM binding intensity (ln)
1,GATATTTTTTTCGAAAGTACAAAAAAAAATATTTCC [XGTACX_site4389],8.86
2,AAAATTAAAAATAACACACACATATATATATTTATA [CACACA_site2776],9.84
3,ATATATATACCAAGTAGTACATTCTACAACTAATGT [XGTACX_site8653],9.24
4,TTTATTTGTAACGGTTGTACTTGTATATCATTATGA [XGTACX_site4281],9.47
5,TAGTGATATAATTATGTGCACTTAATACAGGTCGAT,9.42
6,CACTAAAATAGACACACACACACACGGATATAAATA [CACACA_site7873],10.3
7,CTTAAATTTAAGTTCACACATATTGGTCATTTATAT [CACACA_site5006],9.42
8,TAGATACATACACGCACACACATATATATATATATA [CACACA_site12],9.77
9,AATGTACGTTTTATAACACACACACTAATAAAAAAA [CACACA_site9286],9.78
10,CCACATTAAAAAAAAACACACATATATTATAGATAT [CACACA_site6662],9.64
11,ATCTTCAAAAATATTAGTACACATGTATCATGAATT [XGTACX_site3872],9.12
12,AGAAAAGAAATTAGTTGTACTCTGATGAATTATCCT [XGTACX_site6284],9.12
13,GATGTTCATCACTACACACACAAAGAAATATAAATA [CACACA_site7294],9.76
14,TACCCAAAGTTACATACACACTAATATTTACACCAT [CACACA_site4709],9.64
15,ATATGAAGTTATATAGTGCACATGTACAACCAAATC [GTGCAC_site9974],9.6
16,TTCTATATATATATAGACAAACGATAAAATAAAAAA [GTGCAC_negctrl_site142],9.29
17,TAATAATAGTGAGAGTGTACTTTAAATAAAATATAT [XGTACX_site2850],9.33
18,AAAGAATTTAAATATTGTACGCAATATATAAAAAAA [XGTACX_site7616],9.07
19,TAATATTATTATTTTACACACTTTTTTCCTTTTATC [CACACA_site2457],9.45
20,AAAAGTACAATATATATGTATGTGTATAGAATGGTT [TGCATGCA_negctrl_site76],9.56
21,TACAATTTGATATATACACACAAATAAATTATGCTT [CACACA_site6534],9.37
22,ATAATATTATACTTTGCACACATCTGAAATGACATA [CACACA_site3952],9.45

row,Sequence,gcPBM binding intensity (ln)
1,AAAAAACAGACATACACACACACACCCATATATATA [CACACA_site3392],10.2
2,TTTGATAAAATTGATATCCTATAATTATATAAATAA [GTGCAC_negctrl_site317],8.83
3,GATAAAATAAAAGTGGGTACTTAAATATATATATAA [XGTACX_site8457],9.28
4,GGATAAGATGTATATACACACAATTTAAAAAAATAA [CACACA_site910],9.35
5,AATACAATTTTTAACACACACACAATAATACAGATA [CACACA_site4823],10.2
6,GTGTAATTTATTGTGTTGCACTTTTTTTTTTTTTTT [GTGCAC_site9644],9.46
7,AAGATAGACTCATATGCATGCATTCACATACCAACA [TGCATGCA_site179],9.31
8,TTAATATAGGAATATGCACACATATATACATACATA [CACACA_site8432],9.39
9,ATTCTATATTTAAATGCATGCACTTTCTATTTTTTT [TGCATGCA_site435],9.53
10,TTTAATTTGTTATACACACACAAAAAAAATTATAAA [CACACA_site3937],9.5
11,GCTAAAAGTATATGCACACACATATAGATGCACATA [CACACA_site6868],9.55
12,GACACTTTGAAGGGTACATGCAGAAAAAAAAAAAAA [TGCATGCA_site89],9.01
13,TTTTATTTATCTAATTGTACTCATTCTTTTTTGATG [XGTACX_site2876],9.31
14,AATGTGCCCACGCGTACACACAAAAAAAGAAAAAAA [CACACA_site2003],9.37
15,ATAAAATAATTAATGGGTACATAATTAAATAAAGAG [XGTACX_site3309],9.52
16,TTTTAAAAAAAAAAAAAAAAAATTAAAATAATTCAA [TGCATGCA_negctrl_site69],8.56
17,AAGAAAAAAAAAAAAAAAAAAAAAAAAAATTTATGA [TGCATGCA_negctrl_site294],8.81
18,CAGTTATTTTAATGTGGTACACAATTTTAAAATTAT [XGTACX_site8571],9.01
19,AAATATAATTTGCGATGTACACATATATATTTATTT [XGTACX_site1568],9.27
20,TGAAATGATATATAAACACACATATATAAATATGTA [CACACA_site7616],9.35
21,TACCTATACCTATACACACACACACGGAAATAAATA [CACACA_site6750],10.3
22,ATATAAAATGAACATAGTACTTTTTATATATTTTAA [XGTACX_site7461],8.9
